Consider 107 molecules from PubChem BioAssay AID488969 (Vanderbilt High Throughput Screening Facility, 2010).

In all, about 110,000 compounds were measured (“z-score”: median about -0.1, highest 2% from about 2 on). The list shows a part of the results. Activity calls are given as the source filed them.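 The calls were made as follows: active = z-score in the third read window above 3 or below -3; inactive = the rest.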 Residues, ends and D or L forms follow the SMILES beside them. *: point of attachment. OBn = c1ccc(CO*)cc1

For the assay, the target named is Metabotropic glutamate receptor 8 (Rattus norvegicus) (UniProt P70579). The assay can be described thus: rat mGluR8 modulators via GIRK flux, primary screen, cell-based, thallium flux, HTS (AID 488969). As to conditions: HEK293 rat mGluR8, GIRK (G protein-gated inwardly rectifying potassium channel) thallium flux, FluoZin2; at 10 µM; stronger effect = higher value; submaximal glutamate (EC20) added with thallium.
Sequence of UniProt P70579 (P70579 whole entry, looked up): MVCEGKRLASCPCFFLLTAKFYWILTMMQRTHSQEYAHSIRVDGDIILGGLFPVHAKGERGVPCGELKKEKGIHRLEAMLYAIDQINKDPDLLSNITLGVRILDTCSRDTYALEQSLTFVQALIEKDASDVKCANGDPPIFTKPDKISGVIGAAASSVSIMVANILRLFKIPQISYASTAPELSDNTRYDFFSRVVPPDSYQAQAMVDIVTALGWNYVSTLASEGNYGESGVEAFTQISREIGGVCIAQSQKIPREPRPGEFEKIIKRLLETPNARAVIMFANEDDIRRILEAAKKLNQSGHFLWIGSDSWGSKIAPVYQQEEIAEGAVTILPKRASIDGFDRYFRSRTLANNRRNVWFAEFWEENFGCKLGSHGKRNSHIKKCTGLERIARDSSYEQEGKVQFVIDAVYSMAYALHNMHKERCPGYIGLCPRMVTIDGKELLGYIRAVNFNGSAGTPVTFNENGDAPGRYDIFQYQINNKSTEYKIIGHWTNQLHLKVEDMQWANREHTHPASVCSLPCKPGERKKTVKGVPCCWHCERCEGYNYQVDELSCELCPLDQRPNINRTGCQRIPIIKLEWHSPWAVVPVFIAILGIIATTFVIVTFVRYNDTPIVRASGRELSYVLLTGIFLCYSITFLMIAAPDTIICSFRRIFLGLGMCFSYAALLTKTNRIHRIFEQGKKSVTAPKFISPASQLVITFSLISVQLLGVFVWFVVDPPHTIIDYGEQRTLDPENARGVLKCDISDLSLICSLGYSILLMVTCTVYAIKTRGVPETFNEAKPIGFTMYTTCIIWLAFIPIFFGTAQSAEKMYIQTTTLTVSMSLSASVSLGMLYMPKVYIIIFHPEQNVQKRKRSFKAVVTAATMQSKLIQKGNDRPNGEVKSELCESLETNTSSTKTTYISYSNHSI
For `CCOC(=O)C(C(=O)NCc1ccc(F)cc1)c1ncc(C(F)(F)F)cc1Cl` (configuration not stated), the z-score is -0.0848.

In turn, `CCOc1ccc(NC(=O)CN2CCN(CC(=O)Nc3ccc(Cl)c(C(F)(F)F)c3)CC2)cc1` returned a z-score of -0.0101.

Consider `CCCN1CCN(CCCNC(=S)Nc2ccc(OC)cc2)CC1`, for which the z-score stood at 0.0132.

In turn, `O=C(OCn1nnc2ccccc2c1=O)c1ccc(N2CCOCC2)c([N+](=O)[O-])c1` came in with a z-score of -0.247.

In the case of `CCc1ccc(-c2ccc(C(=O)C(F)(F)F)[nH]2)cc1`, the z-score was -0.0177.

Consider `Cc1ccc(CN(C(=O)CNC(=O)c2cccs2)C(C(=O)NCC2CCCO2)c2ccccc2)cc1` (configuration not stated), for which the z-score was -0.275.

As for `CCOC(=O)C1CCCN(C(=O)c2ccc3c(=O)n(CCOC)c(=S)[nH]c3c2)C1` (configuration not stated), the z-score was 0.771.

Turning to `CCn1c(CNC(=O)COc2ccc(C(C)C)cc2)nnc1SCC(=O)Nc1ccccc1F`, the z-score was -0.291.

Molecule `CCC1=[N+](CC(=O)c2ccc(C)cc2)CCn2c(C)ccc21` had a z-score of -0.247.

On to `COc1ccc(CC(=O)c2c(O)cc(O)cc2O)cc1OC`, for which the z-score is -0.144.

In turn, `O=C(CN1CCC(NC(=O)c2ccco2)CC1)Nc1cccc2ccccc12` showed a z-score of 0.182.

In turn, `CC(C1CC2CCC1C2)n1c(COc2ccccc2F)nnc1SCC(N)=O` (configuration not stated) showed a z-score of 0.186.

`O=C(Nc1nnc(C2CC2)s1)c1cc2c(s1)CCCCCC2` yielded a z-score of -0.103.

`CCOc1ccc(NC(=O)c2cn(-c3ccc(OCC)cc3)c(=O)c3cc(OC)c(OC)cc23)cc1` yielded a z-score of -0.251.

As for `CCN(CC)S(=O)(=O)c1ccc(N2CCCC2)c(NS(=O)(=O)c2ccc(OC)cc2)c1`, the z-score was -0.043.

With `CN(c1ccccc1)S(=O)(=O)c1ccc(NC(=O)c2ccc(-c3ccccc3)cc2)cc1`, the z-score was -0.236.

`Cc1c(Cl)c([N+](=O)[O-])nn1CCCC(=O)Nc1cc(Cl)ccc1Cl` registered a z-score of -0.213.

`Nc1cc(=O)[nH]c(SCC(=O)Nc2ccc(Cl)c(Cl)c2)n1`: the z-score was -0.192.

Consider `Cc1occc1C(=O)n1cnc2ccccc21`, for which the z-score is -0.288.

Regarding `O=c1c2sc(-c3ccccc3)cc2nc2n1CCC2`, the z-score came to 0.165.

`N#Cc1ccc(C2=NC(C(F)(F)F)(C(F)(F)F)c3c(n(Cc4ccco4)c(=O)[nH]c3=O)N2)cc1` gave a z-score of -0.765.

The molecule `CCc1ccc2c(c1)cc(CN(C(=S)Nc1ccccc1Cl)C1CC1)c1nnnn12` had a z-score of -0.276.

In turn, `CSc1ccccc1NC(=O)COc1ccccc1Cl` yielded a z-score of -1.54.

`CCOC(=O)c1cccc(NC(=O)COC)c1` registered a z-score of -0.441.

Molecule `O=C(COC(=O)CCS(=O)(=O)c1ccc(Cl)cc1)NC1CCCCC1` came in with a z-score of -0.199.

`CCN(CC)C(=O)C1CCN(S(=O)(=O)c2ccc(C3CNC(=O)C3)cc2)CC1` (configuration not stated) registered a z-score of -1.74.

Turning to `COc1ccc(C2C3=C(Nc4ncnn42)c2ccccc2CCC3)cc1` (configuration not stated), the z-score is -1.58.

`O=C(Nc1ccccc1)Nc1ccccn1` registered a z-score of 0.139.

`Cc1ccc(S(=O)(=O)CNC(=S)c2cccc(C)c2)cc1` yielded a z-score of -0.13.

`Cc1ccc(NC(=O)/C=C/c2ccc([N+](=O)[O-])s2)cc1` gave a z-score of -0.137.

`COc1ccc(-n2c(SCC3CNC(=O)O3)nnc2-c2ccc(Cl)cc2)cc1` (configuration not stated) displayed a z-score of -0.724.

In turn, `CCOC(=O)C1=C(C)NC(C)=C(C(=O)OCC)C1C(=O)OC1CCOC1=O` (configuration not stated) came in with a z-score of 0.276.

As to `Cc1ccc2[nH]c(=O)c(N3CCOCC3)c(-c3ccccc3)c2c1`, the z-score is -0.165.

In turn, `Cc1onc(-c2ccccc2)c1C(=O)NCc1ccc2c(c1)OCO2` had a z-score of 0.0427.

On to `CCN(CC)S(=O)(=O)c1ccc(OC)c(NC(=O)C(C)Oc2ccc3c(C)cc(=O)oc3c2)c1` (configuration not stated), for which the z-score was -1.22.

In turn, `COC(=O)c1ccc(OCC(=O)c2ccccc2OC)cc1` returned a z-score of -0.264.

The molecule `CCOc1ccc(C(=O)NCC(C)C)cc1` gave a z-score of -0.567.

As for `COCCN1C(=O)c2oc3c(C)cc(C)cc3c(=O)c2C1c1cccc(O)c1` (configuration not stated), the z-score was -0.573.

Regarding `CCOCCCn1c(=NC(C)=O)c(C(=O)OCC)cc2c(=O)n3ccccc3nc21`, the z-score was -0.647.

`c1ccc(-n2ncc3c(NCc4cccnc4)ncnc32)cc1` displayed a z-score of 0.127.

On to `N#Cc1c2n(c3c(=O)n(Cc4ccccc4)cnc13)CCCC2`, for which the z-score is -0.222.

The molecule `CC(C)CNC(=S)NC1CC2CCC(C1)N2Cc1ccccc1` (configuration not stated) yielded a z-score of -0.0729.

For the molecule `CCOC(=O)C1=C(C)N(Cc2ccccc2)C(=O)NC1c1ccc(OC)cc1` (configuration not stated), the z-score is 0.283.

In turn, `O=C(C1CCC1)N1CCc2cc(S(=O)(=O)NCCN3CCN(c4ccccc4F)CC3)ccc21` displayed a z-score of -0.259.

Regarding `CN(CC(=O)O/N=C(\N)c1ccc([N+](=O)[O-])cc1)S(=O)(=O)c1ccc2ccccc2c1`, the z-score was found to be 0.397.

The molecule `Fc1ccc(-c2nnc(CSc3nnc4ccccn34)o2)cc1` showed a z-score of -0.181.

`C=CCn1c(=NC(=O)C2CCCCC2)sc2cc(NC(C)=O)ccc21` had a z-score of -0.258.

For the molecule `CN1c2ccccc2C(O)=C(C(=S)Nc2ccc(F)c(Cl)c2)S1(=O)=O`, the z-score came out at 0.358.

For `CC(C)CCNC(=O)C1CCCN1C(=O)NC1CCCCC1` (configuration not stated), the z-score is -0.0987.

Turning to `O=[N+]([O-])c1cccc(/C=N\N=C2c3ccccc3-c3ccccc32)c1O`, the z-score was -0.652.

`CC(=O)NCc1ccc(S(=O)(=O)N/N=C/c2ccccc2)cc1` came in with a z-score of -0.233.

As to `COc1ccc(CCN=CC2=C(O)CC(C)(C)CC2=O)cc1`, the z-score was determined as 0.179.

`CCC(C)C(NC(=O)C(N)CC(C)C)C(=O)NC(CCC(=O)OCc1ccccc1)C(N)=O` (stereo not drawn) (H-Leu-Ile-Glu(OBn)-NH2; configuration not given here) displayed a z-score of -0.167.

`CCOc1ccccc1C(=O)NCC(=O)OCc1c(C)noc1C`: the z-score was -0.312.

As for `CC1CCN(c2ccc(/C=N/n3nnnc3N)cc2[N+](=O)[O-])CC1`, the z-score was active: 3.58.

`CCN(CC)C(=S)Nc1ccc(OC)cc1` came in with a z-score of -0.164.

Turning to `CCOc1cc(NC(=S)NCCCN2CCOCC2)c(OCC)cc1NC(=O)CC(C)C`, the z-score was -1.52.

In the case of `O=C(COC(=O)/C=C/c1ccccc1[N+](=O)[O-])Nc1ccc(OC(F)F)cc1`, the z-score is -0.243.

As to `N#Cc1cnn2c1nc(N1CCCCC1)c1ccccc12`, the z-score is -0.394.

`COCc1cc(CN2CCCC2)c(O)c2ncccc12` displayed a z-score of 0.156.

The molecule `Cc1ccccc1N1C(=O)CC1(C#N)c1ccc(OCc2ccccc2)cc1` (configuration not stated) had a z-score of -0.029.

The molecule `O=C(Nc1cc(S(=O)(=O)N2CCCCC2)ccc1O)c1ccccc1NS(=O)(=O)c1ccc(F)cc1` returned a z-score of -0.421.

Consider `Cc1cccc(NC(=O)CSc2nc(COc3ccccc3)nc3ccccc23)c1C`, for which the z-score came out at 0.379.

In turn, `CC(C(=O)Nc1ccc2c(c1)OCO2)N(c1ccc(Cl)cc1)S(C)(=O)=O` (configuration not stated) registered a z-score of -0.536.

For `CC1CCCC(NC(=O)NC(=O)CCl)C1C` (configuration not stated), the z-score is 0.0914.

Take `Cn1c(CSCc2ccccc2)nnc1SCC(=O)Nc1nccs1`: the z-score is -0.275.

Consider `O=C(COC(=O)/C=C/c1ccccc1Cl)NCCc1ccc(Cl)cc1Cl`, for which the z-score was -0.117.

Regarding `CCOC(=O)NC(=O)CSc1nnnn1-c1ccccc1`, the z-score was -0.0623.

Regarding `CCOC(=O)N1CCN(c2nc(-c3cccs3)cc(C(F)(F)F)n2)CC1`, the z-score is -0.08.

In the case of `C=CCn1c(=NC(=O)c2ccc(S(=O)(=O)N3CCc4ccccc4C3)cc2)sc2cc(S(N)(=O)=O)ccc21`, the z-score is 0.307.

Molecule `CCS(=O)(=O)N1CCCC(C(=O)N2CCc3ccccc3C2)C1` (configuration not stated) yielded a z-score of -0.0213.

On to `Cc1cc(N2C(=O)C3C4C=CC(C4)C3C2=O)ccc1NC(=O)c1cccs1` (configuration not stated), for which the z-score is 0.398.

In the case of `CCN(C(=O)CSc1nnc(Cc2ccccc2F)n1N)C1CCS(=O)(=O)C1` (configuration not stated), the z-score is -0.217.

`COc1cc(/C=N/NC(=O)c2cccnc2)ccc1OS(=O)(=O)c1ccc(F)cc1` gave a z-score of -0.598.

As for `O=C(Nc1ccncc1)c1ccc2c(c1)C(=O)N(C1CCCCC1)C2=O`, the z-score is active: 6.89.

On to `CCOC(=O)c1ccc2nc(C(F)(F)F)[nH]c(=O)c2c1`, for which the z-score is 0.265.

As for `C=C(C)CSc1nc(N)c2c(C)c(C)sc2n1`, the z-score amounted to 0.0471.

As for `O=C1NC(=O)C2C3c4ccccc4C(c4ccccc43)C12` (configuration not stated), the z-score was -0.0586.

The molecule `CC1(C)CSC(=NCc2ccccc2)N1C(=O)c1cccc([N+](=O)[O-])c1` yielded a z-score of 0.696.

Turning to `CCc1ccc(NC(=O)Cc2cn(C)c3ccccc23)cc1`, the z-score is -0.196.

As for `CCOC(=O)Nc1ccc(=O)n(Cc2c(Cl)cccc2Cl)c1`, the z-score is -0.0471.

As for `COC(=O)C1(S(=O)(=O)c2ccc(C)cc2)CCOCC1`, the z-score was -0.154.

As to `O=C1CCSc2ccc(Cl)cc2N1Cc1ccccc1`, the z-score is -0.321.

The molecule `COCC(=O)Nc1cccc(C(F)(F)F)c1` had a z-score of -0.112.

For the molecule `Cc1ccc(N/N=C/c2c(O)cc(C)oc2=O)cc1`, the z-score is -0.193.

Take `CCC(C)(C)NC(=O)CN(Cc1cccs1)C(=O)CNS(=O)(=O)c1ccc(C)cc1`: the z-score was 0.191.

Molecule `CCOC(=O)c1[nH]c(C)c(C(=O)NCc2ccccn2)c1C` gave a z-score of 0.0839.

`O=C(CN1CCSCC1)N/N=C/c1ccccc1F` had a z-score of -0.0282.

The molecule `Cc1oc(-c2ccc(Cl)cc2)nc1CN1CCC(C(=O)NCc2cccs2)CC1` registered a z-score of 1.65.

For `COc1ccc(N)cc1C#N`, the z-score was found to be 0.208.

Consider `O=C(COC(=O)C1(c2cccc(F)c2)CCCC1)NCc1ccc2c(c1)OCO2`, for which the z-score was -0.383.

Regarding `Cc1ccc(-c2nn3c(C)nnc3s2)cc1NC(=O)COc1ccc(Cl)cc1`, the z-score is -0.373.

As for `Cc1ccc(Nc2nc(N)nc(CSc3nncn3C)n2)cc1`, the z-score is 1.01.

With `COc1ccc(OC)c(S(=O)(=O)N2CCC(C(=O)Nc3cccc(C(F)(F)F)c3)CC2)c1`, the z-score was -1.13.

Molecule `CC(C)CC1NC(=O)N(CC(=O)N2CCN(S(=O)(=O)c3ccccc3)CC2)C1=O` (configuration not stated) displayed a z-score of -0.101.

The molecule `CN(C)CCCN(C(=O)c1cc2ccccc2oc1=O)c1nc2c(F)cccc2s1` gave a z-score of 0.0921.

In the case of `Cc1ccc(C2/C(=C(\O)c3cnn(-c4ccccc4)c3C)C(=O)C(=O)N2CCN(C)C)o1` (configuration not stated), the z-score was -0.417.

Turning to `C=CCNS(=O)(=O)c1ccc(OCC(=O)OCC)cc1`, the z-score was -0.178.

Molecule `COC(=O)CN1C(=O)C2(C(C#N)=C(N)Oc3c2c(C)nn3-c2ccccc2)c2ccccc21` (configuration not stated) yielded a z-score of 0.0568.

As for `COCCCNCC(=O)Nc1sc(C)c(C)c1C(=O)OC`, the z-score is 0.0206.

For `CN(C)C(=O)CSc1nnc(Cc2ccccc2)n1Cc1ccco1`, the z-score was -0.388.

Molecule `O=C(NCCCN1CCOCC1)c1cc2c(s1)CSC2` had a z-score of 0.2.

Molecule `O=C(Nc1cccc(-c2cnc3ccccc3n2)c1)c1ccccc1` registered a z-score of -0.0755.

The molecule `O=c1oc2ccc(Br)cc2cc1S(=O)(=O)c1ccc(F)cc1` registered a z-score of -0.226.

`O=C1c2ccc(-c3nc4ccccc4o3)cc2C(=O)N1Cc1ccccc1` yielded a z-score of -0.0671.

`Cn1cnnc1SC/C(O)=C(\C#N)c1nc2ccccc2[nH]1` registered a z-score of -0.102.

`COc1ccccc1CC(=O)N1CCCc2ccccc21` registered a z-score of -0.0288.
